Experimental data taken from article PMC4336329 (PLoS ONE, 2015).
Out of some 310,000 compounds screened, about 2,200 (0.71%) showed an effect of 50% or more. The effect is printed as a negative number. The list shows a part of the results.

target: human ether-à-go-go-related gene (hERG) potassium channel (human, UniProt Q12809); experiment: primary screen, population patch clamp on CHO cells stably expressing hERG
Sequence (Q12809 whole entry, looked up): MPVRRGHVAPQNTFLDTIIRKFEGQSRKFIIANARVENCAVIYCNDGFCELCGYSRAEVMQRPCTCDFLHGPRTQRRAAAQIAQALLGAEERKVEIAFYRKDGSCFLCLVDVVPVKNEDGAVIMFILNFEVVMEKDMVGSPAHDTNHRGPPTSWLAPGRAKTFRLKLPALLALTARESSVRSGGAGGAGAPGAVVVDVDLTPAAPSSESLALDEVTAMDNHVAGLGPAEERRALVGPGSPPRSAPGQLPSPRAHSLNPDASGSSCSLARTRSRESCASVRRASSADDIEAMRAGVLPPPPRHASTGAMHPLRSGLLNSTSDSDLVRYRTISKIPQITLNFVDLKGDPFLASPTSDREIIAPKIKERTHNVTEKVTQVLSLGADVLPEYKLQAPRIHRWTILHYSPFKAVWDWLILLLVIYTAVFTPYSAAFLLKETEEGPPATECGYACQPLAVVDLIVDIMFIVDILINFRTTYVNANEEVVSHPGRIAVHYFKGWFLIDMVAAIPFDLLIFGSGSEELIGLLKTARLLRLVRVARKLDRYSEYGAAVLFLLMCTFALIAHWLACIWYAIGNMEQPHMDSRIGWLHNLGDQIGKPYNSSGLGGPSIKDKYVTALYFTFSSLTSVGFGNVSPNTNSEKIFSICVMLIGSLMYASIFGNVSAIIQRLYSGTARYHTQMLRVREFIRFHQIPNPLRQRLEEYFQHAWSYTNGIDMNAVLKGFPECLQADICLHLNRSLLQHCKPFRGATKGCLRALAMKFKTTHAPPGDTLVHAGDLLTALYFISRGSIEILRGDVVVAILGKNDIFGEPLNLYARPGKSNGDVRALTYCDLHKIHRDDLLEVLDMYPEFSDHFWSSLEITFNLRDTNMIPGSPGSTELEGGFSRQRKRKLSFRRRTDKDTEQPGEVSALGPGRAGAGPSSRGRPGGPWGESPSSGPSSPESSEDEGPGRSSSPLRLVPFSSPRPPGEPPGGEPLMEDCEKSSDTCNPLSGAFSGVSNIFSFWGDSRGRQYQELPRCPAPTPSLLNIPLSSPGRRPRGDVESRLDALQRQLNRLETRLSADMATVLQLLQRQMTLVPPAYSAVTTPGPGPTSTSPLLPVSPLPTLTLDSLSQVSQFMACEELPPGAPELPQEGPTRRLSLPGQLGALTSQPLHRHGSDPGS

How did the “hERG current change (%, negative = inhibition) at 1uM” value turn out when `O=C(CSc1nccn1-c1ccc(Cl)cc1)N1CCCc2ccccc21` was run?
Its value is 15.5%.

How did the “hERG current change (%, negative = inhibition) at 1uM” value turn out when `Cc1ccc(CCNC(=O)C2CCN(S(=O)(=O)N3CCCCC3)CC2)cc1` was run?
The value was 15.9%.

For `COc1ccc(C(=O)COC(=O)c2ccc3c(c2)OCO3)c(OC)c1`, which “hERG current change (%, negative = inhibition) at 1uM” value is on record?
Its value is -0.032%.

How did the “hERG current change (%, negative = inhibition) at 1uM” value turn out when `O=C1NC(CCc2ccccc2)C(=O)N1Cc1ccccc1Cl` (stereo not shown) was run?
The value was 14.8%.

How did the “hERG current change (%, negative = inhibition) at 1uM” value turn out when `Cc1ccc(NCc2nnc3n2CCCCC3)c(C)c1` was run?
The value was 11.6%.

With `Cc1ccccc1N1C(=O)c2ccccc2NC1c1ccncc1` (stereo not shown) as the molecule, how does the “hERG current change (%, negative = inhibition) at 1uM” value read?
Its value is 13%.

How did the “hERG current change (%, negative = inhibition) at 1uM” value turn out when `O=C(CCN1CCCCC1)c1ccc2c(c1)OCO2` was run?
The value was 10.3%.

Which “hERG current change (%, negative = inhibition) at 1uM” value does the source give for `CCOC(=O)c1[nH]c2ccc(F)cc2c1NC(=O)c1cc(OC)c(OC)c(OC)c1` here?
The value was 6.92%.

Which “hERG current change (%, negative = inhibition) at 1uM” value does the source give for `Clc1ccccc1-c1nc2ccccc2c2nncn12` here?
Its value is 7.9%.

How did the “hERG current change (%, negative = inhibition) at 1uM” value turn out when `COc1ccc(CNC(=S)NNC(=O)c2cc3ccccc3o2)cc1` was run?
The value was 8.92%.

For `COc1ccc(CCC(=O)OCC(=O)Nc2c(C)n(C)n(-c3ccccc3)c2=O)cc1`, which “hERG current change (%, negative = inhibition) at 1uM” value is on record?
Its value is -3.51%.

Which “hERG current change (%, negative = inhibition) at 1uM” value does the source give for `Cc1nnc(SCC(=O)N(C2CCCCC2)C2CCS(=O)(=O)C2)n1N` (stereo not shown) here?
The value was 14.5%.

How did the “hERG current change (%, negative = inhibition) at 1uM” value turn out when `CCCS(=O)(=O)N1CCCC(C(=O)NCCc2cccc(C)c2)C1` (stereo not shown) was run?
The value was 14.6%.

With `Cc1c(-n2c(=O)n(Cc3ccccc3)c(=O)c3[nH]cnc32)cccc1S(C)=O` (stereo not shown) as the molecule, how does the “hERG current change (%, negative = inhibition) at 1uM” value read?
Its value is 9.92%.

How did the “hERG current change (%, negative = inhibition) at 1uM” value turn out when `Cc1ccc2[nH]c3c(c2c1)SC(C)(C)CC3=O` was run?
Its value is 14.6%.

For `COc1ccc(N2CCN(C(=O)NC34CC5CC(CC(C5)C3)C4)CC2)cc1`, which “hERG current change (%, negative = inhibition) at 1uM” value is on record?
Its value is 12.7%.

How did the “hERG current change (%, negative = inhibition) at 1uM” value turn out when `CCc1[nH]c(C)c(C(C)=O)c1C` was run?
Its value is 14.6%.

For `O=C1c2cccc3cccc(c23)C(=O)N1OS(=O)(=O)c1ccccc1`, which “hERG current change (%, negative = inhibition) at 1uM” value is on record?
Its value is 13.2%.

Which “hERG current change (%, negative = inhibition) at 1uM” value does the source give for `O=C(Nc1cccc(Oc2ccc(C(=O)O)c(C(=O)O)c2)c1)c1ccc(-c2ccccc2)cc1` here?
The value was 0.678%.

For `CC(Sc1nnc(CC(=O)Nc2ccccc2F)n1C)C(=O)Nc1nccs1` (stereo not shown), which “hERG current change (%, negative = inhibition) at 1uM” value is on record?
The value was 13.8%.

With `CCOC(=O)c1sc(S(C)(=O)=O)c2c1CCc1conc1-2` as the molecule, how does the “hERG current change (%, negative = inhibition) at 1uM” value read?
Its value is 14.6%.

`NC(=O)Cn1ccc(O)c(Cc2ccc(Cl)cc2Cl)c1=O` was tested. Which “hERG current change (%, negative = inhibition) at 1uM” value did it give?
Its value is 13.5%.

`CCOC(=O)c1c(C)oc2c1c(C(c1ccncc1)N1CCOCC1)c(O)c1ccccc12` (stereo not shown) was tested. Which “hERG current change (%, negative = inhibition) at 1uM” value did it give?
Its value is 12.2%.

With `Cc1ccc(CCNC(=O)CS(=O)Cc2nc(-c3ccccc3Cl)oc2C)cc1` (stereo not shown) as the molecule, how does the “hERG current change (%, negative = inhibition) at 1uM” value read?
The value was 12.3%.

Which “hERG current change (%, negative = inhibition) at 1uM” value does the source give for `C/C(=N/NC(=O)c1ccc(Br)o1)c1ccc(C)o1` here?
The value was 0.861%.
